Measurements as given in PubChem BioAssay AID686978 (National Center for Advancing Translational Sciences (NCATS), 2013).
Hit rate of the full screen: of about 420,000 compounds, about 64,000 (15%) were called active. The shares of active, inactive and inconclusive entries below differ from those in the screen. The call rests on the fitted dose curve; in most records, active means well fitted inhibition curve with a large enough effect; inconclusive means small, poorly fitted or top-dose-only effect; inactive means flat fitted curve, though single readings scatter. Potencies of inconclusive entries are left out as doubtful fits.

experiment: qHTS for Inhibitors of human tyrosyl-DNA phosphodiesterase 1 (TDP1): qHTS in cells in absence of CPT; settings: DT40 Tdp1-/- hTDP1 cells, no CPT, ATP luminescence, 48 h; activity change, negative = growth inhibition: at 46.2 µM (top of the series); further: nearly all actives have a fitted effect of over 55% in size
Summary of the method: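 Compound effects on proliferation are scored in DT40 Tdp1-/-;hTDP1 cells in the absence of CPT. ATP levels (CellTiter-Glo luminescence) are recorded after a ≥48 hr, 37 °C incubation.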
On the % scale 0 is the no-effect control and ±100 the full control effect; potency means the concentration at half of the fitted maximal effect; tags describe the fitted curve by direction and shape.

Row | SMILES | Potency | activity change, negative = growth inhibition
1 | CCSc1nsc(NC(=O)Nc2ccccc2Cl)n1 | active: 14.6 µM | –
2 | CCOC(=O)c1ccccc1NC(=O)CSc1ccc(-c2cccnc2)nn1 | inconclusive [inhibitor, single point] | –
3 | O=C(Cn1cnc2ccccc21)N/N=C/C(Br)=C/c1ccccc1 | active: 23.1 µM | –
4 | Cc1cc(=O)[nH]c(-n2[nH]c3c(c2=O)CCCC3)n1 | inconclusive [inhibitor, partial curve] | –
5 | Cc1ccc(-c2cn3c(n2)sc2cc(C(=O)NC(C)C45CC6CC(CC(C6)C4)C5)ccc23)cc1 (centres undefined) | – | inactive: -21.2%
6 | Cc1ccc(-c2nn(C)c(=O)c3ccccc23)cc1CN1CCCCC1 | inconclusive [inhibitor, single point] | –
7 | OCC1CCCN(c2nc3cc4c(cc3cc2CNCc2cccs2)OCO4)C1 (centres undefined) | inconclusive [inhibitor, partial curve] | –
8 | CCOCCCNC(=O)COc1ccc(OC)cc1 | – | inactive: -9.89%
9 | COc1ccc(CCNS(=O)(=O)c2ccc(C(=O)NCc3ccco3)cc2)cc1OC | – | inactive: -12.5%
10 | COc1ccc(N(CC(=O)Nc2cc(C(=O)O)ccc2C)S(=O)(=O)c2c(C)noc2C)cc1 | – | inactive: -4.77%
11 | Cc1ccc(C(C)C)c(OCCNCc2ccccc2)c1 | active: 20.6 µM | –
12 | CCOc1ccccc1CNC(=O)C1CCN(S(=O)(=O)c2ccc3c(ccn3C)c2)CC1 | inconclusive [inhibitor, single point] | –
13 | CCc1ccc(C(=O)N2CCC(c3nc4ccccc4s3)CC2)cc1 | inconclusive [inhibitor, single point] | –
14 | COCCn1c(C)cc(C(=O)COC(=O)c2ccc3c(c2)NC(=O)CS3)c1C | inconclusive [inhibitor, partial curve] | –
15 | O=S(=O)(N(Cc1ccccc1)[C@@H](CO)Cc1ccccc1)N(Cc1ccccc1)[C@@H](CO)Cc1ccccc1 | active: 5.62 µM | –
16 | Cc1ccccc1C(=O)Nc1nc(-c2nnn(-c3ccc(C(C)C)cc3)c2C)ns1 | inconclusive [inhibitor, partial curve] | –
17 | COc1ccc(-c2sc(NC(=O)c3ccc(C)cc3)nc2-c2ccc([N+](=O)[O-])cc2)cc1 | inconclusive [inhibitor, partial curve] | –
18 | C/C=C/C(=O)N1c2ccccc2C(C)=CC1(C)C | – | inactive: -14.8%
19 | CC(C)NC(=O)c1cc(-c2ccco2)on1 | inconclusive [inhibitor, partial curve] | –
20 | COc1ccc(NCc2nnc(SCC#N)n2-c2ccccc2OC)cc1 | active: 16.4 µM | –
21 | O=C(CCS(=O)(=O)c1cc(Br)cc2c1N(C(=O)C1CC1)CC2)N1CCN(c2ccccn2)CC1 | – | inactive: -20.9%
22 | Cc1ccc(CS(=O)Cc2ccc(C(=O)NC3CCCCC3)o2)cc1 (centres undefined) | – | inactive: -0.685%
23 | COCC(=O)Nc1cc(C(=O)NC2CCCc3ccccc32)c2c(c1)nc(-c1ccncc1)n2C (centres undefined) | inconclusive [inhibitor, single point] | –
24 | O=C1CSC(=S)N1N=Cc1c(O)ccc2ccccc12 | active: 13 µM | –
25 | CCOc1ccc(C(=O)NCCS(=O)(=O)N2CCN(c3ccccc3F)CC2)cc1OCC | inconclusive [inhibitor, single point] | –

Row | SMILES | Potency | activity change, negative = growth inhibition
26 | CC1CCCN(c2oc(-c3cccc4ccccc34)nc2C#N)C1 (centres undefined) | – | inconclusive: -35.2% [inhibitor]
27 | Cc1ccc(CN2C(=O)CSC2c2ccc(F)cc2)cc1 (centres undefined) | inconclusive [inhibitor, single point] | –
28 | CCOC(=O)c1c(CN2CCOCC2)n(-c2ccccc2)c2cc(Br)c(O)c(CN(C)C)c12 | inconclusive [inhibitor, partial curve, poor fit] | –
29 | Cc1onc(-c2c(F)cccc2Cl)c1C(N)=S | – | inactive: -18.5%
30 | COc1ccc(CCn2c(NCCCN3CCOCC3)nc3c2c(=O)[nH]c(=O)n3C)cc1 | – | inactive: -9.49%
31 | COc1ccccc1-c1nc(N(C)C)c2ccccc2n1 | inconclusive [inhibitor, single point] | –
32 | CCN(CC)C(=O)C1CCN(Cc2ccc(OCc3ccccc3)c(OC)c2)CC1 | – | inactive: -43.3%
33 | CS(=O)(=O)N1CCN(c2ccccc2NC(=S)NC(=O)c2cccs2)CC1 | inconclusive [inhibitor, single point] | –
34 | O=C(CNc1cc(S(=O)(=O)N2CCOCC2)ccc1N1CCCC1)Nc1ccc(Cl)cc1F | active: 13 µM | –
35 | O=[N+]([O-])c1cccc(C2Nc3ccccc3CO2)c1 (centres undefined) | inconclusive [inhibitor, single point] | –
36 | CSc1cccc(CN2CCCC(CNC(=O)c3ccc(F)cc3)C2)c1 (centres undefined) | inconclusive [inhibitor, single point] | –
37 | CCOc1c2ccc(C(=O)NCC34CC5CC(CC(C5)C3)C4)cc2nn1CC | active: 16.4 µM | –
38 | COCOCCn1cc(CN2CCS(=O)(=O)N(Cc3ccc(-c4ccccc4)cc3)C(C(C)C)C2=O)nn1 (centres undefined) | active: 23.1 µM | –
39 | CN(Cc1cnccn1)C(=O)c1cc(COc2cccc(C(F)(F)F)c2)on1 | inconclusive [inhibitor, single point] | –
40 | COc1cc(Cl)c(C)cc1NC(=O)CNC(C)c1ccccc1OC (centres undefined) | inconclusive [inhibitor, single point] | –
41 | Cc1ccc(C(=O)N/C(=C\c2ccc(Cl)cc2)C(=O)NCCCN2CCOCC2)cc1 | – | inactive: 15.3%
42 | COc1ccccc1N1CCN(CCCNC(=O)c2cnn(-c3ccccc3)c2C2CCN(C(=O)OC(C)(C)C)CC2)CC1 | active: 16.4 µM | –
43 | Cc1cccc(CCNC(=O)Cn2ncc3c([nH]c4ccc(C)cc43)c2=O)c1 | – | inactive: -16.7%
44 | CC(=NCCc1c(C)[nH]c2ccc(OC(F)(F)F)cc12)C1=C(O)CC(c2ccccc2)CC1=O (centres undefined) | active: 3.26 µM | –
45 | Cc1c(C(=O)Nc2nccs2)sc2nc(-c3cccs3)cc(C(F)(F)F)c12 | active: 23.1 µM | –
46 | COC(=O)/C(=C/c1cccnc1)NC(=O)c1ccccc1 | – | inactive: -4.56%
47 | Cc1ccc2c(c1)Oc1ccc([N+](=O)[O-])cc1C(=O)N2 | – | inactive: 26.5%
48 | Cc1ccc(-n2nc(C)c(/C=N/NC(=O)c3cccs3)c2Cl)cc1 | inconclusive [inhibitor, partial curve] | –
49 | O=C1/C(=C/C=C/c2ccco2)SC(=S)N1c1ccc(O)cc1 | inconclusive [inhibitor, single point] | –
50 | Cc1c(C(=O)N2CCCC2)sc2ncnc(NCCCN3CCOCC3)c12 | – | inactive: -0.306%

Row | SMILES | Potency | activity change, negative = growth inhibition
51 | COc1cc(C(O)c2nc(/C=C/c3ccc(C(F)(F)F)cc3)cs2)ccc1F (centres undefined) | inconclusive [inhibitor, single point] | –
52 | C[C@@H]1CN([C@H](C)CO)C(=O)CCCn2nncc2CO[C@H]1CN(C)Cc1cccc(O)c1 | – | inactive: -4.59%
53 | Cc1c(C(=O)NC2CC2)oc2ccccc12 | – | inactive: -23%
54 | Nc1cc(=O)[nH]c2c1CCC2 | – | inactive: -12.7%
55 | CCOc1cccc(CNn2cnnc2)c1OCc1ccccc1 | – | inactive: -2.37%
56 | O=C(NC1CCN(Cc2ccccc2)CC1)c1ccc(Cl)cc1Cl | inconclusive [inhibitor, single point] | –
57 | CSc1nc(-c2ccccc2)c(C#N)c(=O)n1C | – | inactive: -25%
58 | COc1ccc(C(NC(=O)C2CCN(CCOc3ccc(F)cc3)CC2)c2cccs2)cc1 (centres undefined) | inconclusive [inhibitor, single point] | –
59 | COc1ccc(C(=O)N2CCCC(C)(C(=O)NS(=O)(=O)C3CC3)C2)c(OC)c1 (centres undefined) | active: 3.66 µM | –
60 | Cc1ccc(CNC(=O)C23CN(Cc4ccccc4)CC2C(c2ccc([N+](=O)[O-])cc2)=NO3)cc1 (centres undefined) | inconclusive [inhibitor, partial curve] | –
61 | Cc1nn(-c2ccccc2)c(Cl)c1/C=C/C(=O)c1ccccc1 | inconclusive [inhibitor, single point] | –
62 | CCc1ccc(-n2c(Cc3ccccc3)nnc2SCc2nc(-c3cccs3)no2)cc1 | active: 16.4 µM | –
63 | CN1C(=O)c2ccc(NC(=O)CCS(=O)(=O)c3ccccc3)cc2C1=O | – | inactive: 6.63%
64 | CCOCC(=O)N1CCN(c2ccc([N+](=O)[O-])cc2)CC1 | inconclusive [inhibitor, single point] | –
65 | O=C(Nc1ccc2c(c1)OCCO2)C1CCCN(S(=O)(=O)c2cccs2)C1 (centres undefined) | inconclusive [inhibitor, single point] | –
66 | Cc1cc(C)cc(-n2ncc3c2CCCC3NC(=O)c2cc(C)[nH]n2)c1 (centres undefined) | inconclusive [inhibitor, single point] | –
67 | COc1ccc(-n2c(O)c(/C=N/NS(=O)(=O)c3cc(C)ccc3C)c3ccccc3c2=O)cc1OC | active: 16.4 µM | –
68 | Cc1nc2ccn(Cc3cccs3)c(=O)c2cc1C(=O)Nc1ccccc1 | inconclusive [inhibitor, partial curve] | –
69 | Cc1c(C2=CCN(S(=O)(=O)c3ccc(Br)cc3)CC2)c2ccccc2n1C | inconclusive [inhibitor, single point] | –
70 | O=C(NCCc1ccc(Cl)cc1)C1CCN(S(=O)(=O)N2CCC3(CC2)OCCO3)CC1 | – | inactive: -17.4%
71 | CCN(CC)S(=O)(=O)c1ccc(NC(=O)C2COc3ccccc3O2)cc1 (centres undefined) | inconclusive [inhibitor, single point] | –
72 | CNC(=O)c1ccc(NC(=O)C2CCN(S(=O)(=O)c3cccc(C(F)(F)F)c3)CC2)cc1 | – | inactive: -3.45%
73 | Cc1ccc(/C=C/c2onc(C)c2S(=O)(=O)N2CCC(C(=O)NCC(C)c3ccccc3)CC2)cc1 (centres undefined) | – | inactive: -23.5%
74 | Cc1cccc(C)c1-n1nnnc1C(c1ccnc2ccccc12)N(C)Cc1ccccc1 (centres undefined) | active: 16.4 µM | –
